± gives the standard deviation of the averaged measurements. Whole data set: some 33,000 sequences, median “E-score (dimensionless, -0.5 to 0.5)” near -0.049, cut for the highest 2% near 0.37. The list shows a part of the results.
system: T1, PmTbr T-box DNA-binding domain (GST fusion); assay: PBM E-score of 8-mer (E-score (dimensionless, -0.5 to 0.5)); Tbr is Tbrain of the sea star Patiria miniata (Pm) or the sea urchin Strongylocentrotus purpuratus (Sp); higher = stronger binding preference; most listed sequences are background and not binding sites; settings: the construct has about 5 more residues each side
T1 sequence: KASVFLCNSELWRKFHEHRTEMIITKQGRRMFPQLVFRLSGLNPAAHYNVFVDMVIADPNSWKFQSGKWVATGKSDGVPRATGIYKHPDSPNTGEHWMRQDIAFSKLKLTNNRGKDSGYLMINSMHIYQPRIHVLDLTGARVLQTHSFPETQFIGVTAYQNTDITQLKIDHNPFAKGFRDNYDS
In short: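 GST-fused Tbr T-box DNA-binding domains (the whole T-box plus about five flanking residues) were expressed in BL21 E. coli at 20 °C and purified by glutathione affinity chromatography. Universal Agilent oligonucleotide arrays were made double-stranded by primer extension, incubated with 200 nM protein in PBS (pH 7.5), then scanned and quantified. Every ungapped 8-mer was scored from probe intensities. The Universal PBM Analysis Suite gave each word an enrichment E-score, averaged over duplicate arrays.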

Sequence | PBM E-score of 8-mer
GGATCCGA | -0.166 ± 0.0055
ATTATCTA | -0.156 ± 0.057
AAAAAACA | -0.0435 ± 0.077
ACCCGGAC | 0.0913 ± 0.022
GTTATGCA | -0.00854 ± 0.022
GACATGTC | 0.254 ± 0.033
GAAGGCGA | 0.147 ± 0.0065
ATCATACC | -0.142 ± 0.059
AAAAGAGC | -0.125 ± 0.041
CGTAACTA | -0.0993 ± 0.091
ATGTAGGA | -0.0614 ± 0.031
ATCGACAT | -0.0511 ± 0.09
CGGTTTTC | -0.0777 ± 0.022
AGTATATC | -0.0566 ± 0.022
CGTTCGGC | -0.0976 ± 0.041
CGCATTAC | 0.0561 ± 0.044
GCTGCACC | 0.153 ± 0.013
CCCGGAAC | -0.119 ± 0.05
AACTGTAA | 0.0675 ± 0.059
GAGGCCGC | -0.106 ± 0.0075
CTACCATC | 0.0652 ± 0.017
AGAGCTTA | -0.0767 ± 0.015

Sequence | PBM E-score of 8-mer
ATCTCATA | -0.127 ± 0.024
CGGACCCG | 0.0789 ± 0.022
ACCTCATC | 0.028 ± 0.1
CGGGCTTA | -0.155 ± 0.018
GATTACAC | 0.199 ± 0.091
GCAAGGGA | -0.0713 ± 0.1
ACCTTCAC | 0.274 ± 0.025
ATATTATC | 0.0113 ± 0.083
AGCGGGTG | 0.308 ± 0.017
CATAGCCA | -0.0119 ± 0.045
AGTCGCTA | 0.306 ± 0.031
CTAGGCCC | -0.274 ± 0.082
CAAGTCCC | 0.0953 ± 0.0036
GTGGGACA | 0.114 ± 0.029
ATGTCCAC | -0.161 ± 0.035
ATCCTATA | -0.114 ± 0.056
GACCGTAC | -0.213 ± 0.057
CACTGAAA | -0.0107 ± 0.025
CGATAATC | 0.151 ± 0.037
ACGTCACC | 0.295 ± 0.053
ACACCAGG | 0.275 ± 0.018
AAATCAAC | 0.0774 ± 0.0044

Sequence | PBM E-score of 8-mer
CTCGCTCC | 0.117 ± 0.023
AATACGCA | 0.114 ± 0.049
ACGCGGGC | -0.163 ± 0.075
AGGTATTC | 0.0762 ± 0.05
GTCGCCTA | 0.105 ± 0.057
AGCGAGCA | 0.0802 ± 0.054
CCACGGAC | -0.0809 ± 0.028
CGAGCCAA | -0.171 ± 0.074
CTTACCCC | -0.0653 ± 0.067
ACTTGTTG | 0.332 ± 0.018
CTCAGAAA | -0.15 ± 0.013
AAGAGACG | -0.275 ± 0.021
AGTACGCA | -0.0551 ± 0.032
CGGCTCTA | 0.0438 ± 0.0021
ATGTACCG | -0.047 ± 0.051
AAGGAGTG | 0.206 ± 0.011
ACCAATAT | 0.125 ± 0.053
CAGACTAA | -0.081 ± 0.021
ACCTCGCA | 0.293 ± 0.0053
AACAGCAA | 0.0396 ± 0.025
CGCCAAGC | 0.0166 ± 0.082
ACACACGC | 0.0894 ± 0.043

Sequence | PBM E-score of 8-mer
AACCGTGA | 0.234 ± 0.075
GAGACCTC | -0.252 ± 0.019
CACGGTGA | 0.2 ± 0.021
CTCGGCGC | 0.0429 ± 0.085
ACGCAATG | -0.0322 ± 0.018
CGGCCATA | -0.12 ± 0.0028
CGCCATAG | 0.00713 ± 0.06
ATAGCACC | 0.416 ± 0.012
CAGCATAG | -0.0612 ± 0.039
CAGAGTCG | 0.164 ± 0.014
AGGTCTTA | -0.196 ± 0.013
ATGTAAAG | -0.293 ± 0.035
CGTCGGCC | -0.0457 ± 0.072
ATGACAAG | 0.114 ± 0.0079
GACTTGGC | 0.122 ± 0.04
GAGCCTTA | -0.224 ± 0.089
GTACGTAC | -0.0199 ± 0.077
GCAAAACA | 0.127 ± 0.036
GTCATTCA | 0.04 ± 0.065
AATACTAT | -0.101 ± 0.059
CCCTCGAC | 0.106 ± 0.065
CGCGGGGA | -0.0567 ± 0.048

Sequence | PBM E-score of 8-mer
ACCCGTAA | -0.0431 ± 0.0047
AAGATATA | -0.0189 ± 0.016
ATCTATCA | -0.0454 ± 0.036
CTGCAACA | 0.00995 ± 0.017
CCTGTGTA | -0.0943 ± 0.069
CAGGAGAG | -0.248 ± 0.023
AGGGTGTC | 0.435 ± 0.014
CCAAGAGG | 0.157 ± 0.072
AGAGCAAA | -0.099 ± 0.029
AGAGATAC | -0.242 ± 0.021
ATAGAATA | -0.17 ± 0.035
AAGGAGGC | -0.181 ± 0.009
CAAGACCA | -0.216 ± 0.0056
CCCCCTCG | -0.205 ± 0.016
GTCTGCTA | 0.0147 ± 0.0016
ATTATGGG | -0.187 ± 0.059
ACTTCTGC | 0.00198 ± 0.037
CATGACGC | 0.0355 ± 0.06
CCGAATTC | -0.16 ± 0.067
GGTAATTA | -0.105 ± 0.006
GACATGAC | 0.0395 ± 0.04

From the supplement of paper PMC4166925
